# About 2,200 (0.71%) of roughly 310,000 compounds showed an effect of 50% or more. The effect is printed as a negative number. The list shows a part of the results.
# Target: human ether-à-go-go-related gene (hERG) potassium channel (human, UniProt Q12809)
# Experiment: primary screen, population patch clamp on CHO cells stably expressing hERG
# Sequence of human ether-à-go-go-related gene (hERG) potassium channel (Q12809 whole entry, looked up): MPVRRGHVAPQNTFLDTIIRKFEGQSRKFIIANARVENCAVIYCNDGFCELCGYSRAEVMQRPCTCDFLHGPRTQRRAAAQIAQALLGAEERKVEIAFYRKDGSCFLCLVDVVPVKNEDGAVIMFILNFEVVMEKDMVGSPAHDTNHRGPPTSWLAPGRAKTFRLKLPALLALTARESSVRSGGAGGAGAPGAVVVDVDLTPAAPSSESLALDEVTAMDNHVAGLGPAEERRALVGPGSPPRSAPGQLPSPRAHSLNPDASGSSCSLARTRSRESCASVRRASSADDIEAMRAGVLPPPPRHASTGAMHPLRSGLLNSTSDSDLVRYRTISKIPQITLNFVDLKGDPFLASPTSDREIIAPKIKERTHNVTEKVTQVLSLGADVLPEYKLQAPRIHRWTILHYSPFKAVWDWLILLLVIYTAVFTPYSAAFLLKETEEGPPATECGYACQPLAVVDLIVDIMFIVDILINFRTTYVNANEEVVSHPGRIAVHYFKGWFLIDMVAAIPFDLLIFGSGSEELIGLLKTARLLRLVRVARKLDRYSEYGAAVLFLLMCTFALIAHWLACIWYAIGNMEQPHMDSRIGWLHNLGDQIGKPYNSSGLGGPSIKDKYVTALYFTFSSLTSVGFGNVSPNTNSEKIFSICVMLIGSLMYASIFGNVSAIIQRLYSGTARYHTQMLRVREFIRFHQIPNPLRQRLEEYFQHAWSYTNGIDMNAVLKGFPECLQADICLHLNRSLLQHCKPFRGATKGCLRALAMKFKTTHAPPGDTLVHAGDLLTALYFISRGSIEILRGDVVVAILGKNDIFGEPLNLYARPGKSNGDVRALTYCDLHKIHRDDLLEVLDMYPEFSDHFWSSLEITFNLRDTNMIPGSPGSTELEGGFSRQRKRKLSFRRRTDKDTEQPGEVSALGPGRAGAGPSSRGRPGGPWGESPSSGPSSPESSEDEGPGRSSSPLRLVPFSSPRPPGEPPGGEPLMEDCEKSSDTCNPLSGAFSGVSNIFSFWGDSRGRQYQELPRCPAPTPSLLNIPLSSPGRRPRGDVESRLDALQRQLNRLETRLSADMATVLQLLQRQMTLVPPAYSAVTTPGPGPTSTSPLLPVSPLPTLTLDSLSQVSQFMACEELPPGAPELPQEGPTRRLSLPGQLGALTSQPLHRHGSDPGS
row,SMILES,"hERG current change (%, negative = inhibition) at 1uM [%]"
1,Cc1[nH]n(-c2ccccc2)c(=O)c1C(=O)c1cccc(F)c1,12.3
2,CCC(C)(C)NC(=O)C(c1ccc(C)cc1)N(Cc1cccnc1)C(=O)c1csnn1 (centres unmarked),3.13
3,COc1cc([N+](=O)[O-])ccc1NC(=O)Nc1ccc2c(c1)OCCO2,0.174
4,O=C(NCc1ccco1)Nc1ccc(Br)cc1Cl,-18.5
5,CC(=O)NCCc1csc(-c2ccccc2)n1,18.1
6,CCN(CC)c1ccc(S(=O)(=O)N2CCOCC2)cc1NS(C)(=O)=O,11.4
7,CCc1ccccc1NC(=O)C1=CC(c2cccs2)=NS(=O)(=O)N1C,0.802
8,O=C(CN1CCN(c2ccccn2)CC1)Nc1ccccc1,11.4
9,CN(C)c1ccc(/C=C/C(=O)c2c(O)c3ccccc3oc2=O)cc1,1.5
10,CCCCNC(=O)N1CCOCCOCCN(C(=O)NCCCC)CCOCC1,-7.22
11,Cc1cc(=O)[nH]c(NN=C(CC(C)C)CC(C)C)n1,12
12,CCOC1CS(=O)(=O)CC1OCC (centres unmarked),8.8
13,O=C(CSc1nc(=O)n2ccccc2n1)Nc1cccc2ccccc12,17.5
14,O=S(=O)(Cc1ccccc1)Oc1ccccc1,11.5
15,Cc1ccc(C(=O)OCC(=O)Nc2ccc3[nH]c(=O)[nH]c3c2)cc1[N+](=O)[O-],13.2
16,COc1ccc(-c2cccc(C3CC=CC4C3C(=O)N(Cc3ccccc3)C4c3ccc4ccccc4c3)c2)cc1 (centres unmarked),8.62
17,COc1ccc(N(CC(=O)NC2CCCC2)C(=O)Cn2nnc(-c3ccc(OC)c(OC)c3)n2)c(OC)c1,7.63
18,CCCCSc1nc(O)c(C2OC(=O)c3c2ccc(OC)c3OC)c(=O)n1-c1ccccc1 (centres unmarked),10.8
19,CN(Cc1cccs1)C(=O)CSc1nnnn1C,2

row,SMILES,"hERG current change (%, negative = inhibition) at 1uM [%]"
1,CC(=O)Nc1cc(N2C(=O)CCC2=O)ccc1Cl,1.71
2,O=C(O)C1OC2OC3(CCCCC3)OC2C2OC3(CCCCC3)OC12 (centres unmarked),8.25
3,COc1ccc(CCNC(=O)CSc2ccc(NC(C)=O)cc2)cc1OC,12.5
4,COC(=O)C1=C(c2cc3ccccc3o2)C[C@@H]2CC[C@H]1N2C(=O)N1CCOCC1,5.15
5,Cc1cnn(CCC(=O)NNC(=S)Nc2cccc(Cl)c2)c1,-3.42
6,CCC(=O)NCCc1nc2cc(NC(=O)c3cccs3)ccc2n1C,2.65
7,O=C(CN(Cc1ccccc1)S(=O)(=O)c1ccccc1)N1CCOCC1,10.1
8,O=C(CCCC(=O)N(CC(=O)NC1CCCCC1)c1ccccc1F)Nc1ccccn1,8.81
9,O=C(NCCc1ccccc1)C1CCC(CNS(=O)(=O)c2ccc(F)cc2)CC1 (centres unmarked),12.7
10,CN(c1ccccc1)S(=O)(=O)c1ccc2[nH]c(=O)[nH]c2c1,8.92
11,CCOC(=O)c1[nH]c2ccccc2c1NC(=O)c1ccc(S(=O)(=O)N2CCCC2)cc1,3.8
12,COc1ccc(C2(CNC(=O)Cc3ccc(OC)c(OC)c3)CCOCC2)cc1,9.09
13,CCNC(=O)COc1cccc(C(=O)NCc2ccccc2)c1,5.5
14,Cc1cccc(C(=O)Nc2nnc(Cc3c[nH]c4ccccc34)s2)c1,16.6
15,O=C1C=C(NNC(=O)c2ccncc2)CC(c2ccccc2)C1 (centres unmarked),7.48
16,NNC(=O)c1ccc(CSc2nc3ccccc3[nH]2)cc1,4.42
17,Cc1cccc[n+]1CC(=O)c1ccccc1.[Br-],11.7
18,CCOC(=O)N1CCN(C(=O)c2cn(CC(C)C)c(=O)c3c2c2ccccc2n3C)CC1,3.4
19,O=C(c1ccccn1)N(Cc1ccco1)C1(C(=O)NC2CCCC2)CCCCC1,-8.64

row,SMILES,"hERG current change (%, negative = inhibition) at 1uM [%]"
1,CC#C[C@@H](CC)c1ccc2ccn(C)c2c1,13.3
2,Cc1cc(C)c(NC(=O)CSc2nc(=O)n(CCN3CCOCC3)c3c2CCCC3)c(C)c1,-1.33
3,COc1ccccc1Nc1cc(C(=O)NC2CCCC2)c2ccccc2n1,16.7
4,O=C(CCSCc1ccc(Cl)cc1)NCc1cccs1,-6.38
5,Cc1cc(C)c(NS(=O)(=O)c2ccc3c(c2)NC(=O)C(C)C(=O)N3)c(C)c1 (centres unmarked),9.35
6,Cc1cc(C)nc(NS(=O)(=O)c2ccc(NC(=O)CCC(=O)O)cc2)n1,14.8
7,Cc1ccc(C)c(S(=O)(=O)N2CCCOC2CNC(=O)C(=O)NCc2ccco2)c1 (centres unmarked),14.4
8,Nc1ccc(-c2nnc(-c3ccc(N)cc3)o2)cc1,6.67
9,O=C1/C(=C/c2ccc(O)cc2)SC(=S)N1CC1CCCO1 (centres unmarked),9.1
10,COCCNC(=O)c1ccc(CS(=O)(=O)c2ccccc2OC)o1,13.6
11,COc1ccc(NC(=O)Nc2cccs2)cn1,14.8
12,COc1ccc(CCNc2ccc(C(CC(N)=O)NC(=O)c3cc(OC)ccc3OC)cc2[N+](=O)[O-])cc1 (centres unmarked),11
13,O=[N+]([O-])c1ccc(CN2CCOCCOCCN(Cc3ccc([N+](=O)[O-])cc3)CCOCC2)cc1,-86.9
14,Cn1cc(CN2CCN(CC(C)(C)C)C(CCO)C2)c2ccccc21 (centres unmarked),8.72
15,CC(C)C1NC(C(=O)O)Cc2c1[nH]c1ccccc21 (centres unmarked),0.741
16,O=C(Nc1ccccc1N1CCOCC1)c1cccc(S(=O)(=O)N2CCOCC2)c1,-0.261
17,CCN1C[C@]2(CO)CC[C@H](OC)[C@@]34C5C[C@H]6[C@H](OC)C5[C@](O)(C[C@H]6OC)[C@@H](C(OC)C23)[C@@H]14 (some centres unmarked),5.45
18,Cc1nn(CC(=O)NCCc2ccco2)c(=O)c2nn(-c3ccccc3)c(C)c12,14.3

# — publication PMC4336329 (PLoS ONE, 2015)
